# Some of the results follow.
# Biological target: T1, MBP-FoxP1dN (Mus musculus, UniProt P58462 326-579)
# T1 sequence: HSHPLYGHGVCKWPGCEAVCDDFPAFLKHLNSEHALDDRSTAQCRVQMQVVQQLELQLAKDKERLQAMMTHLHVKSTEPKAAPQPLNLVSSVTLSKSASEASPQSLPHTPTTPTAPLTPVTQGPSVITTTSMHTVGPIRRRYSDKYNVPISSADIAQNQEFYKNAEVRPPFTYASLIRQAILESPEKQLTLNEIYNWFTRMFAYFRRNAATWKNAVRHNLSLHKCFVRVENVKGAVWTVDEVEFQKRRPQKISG
# Assay: PD-seq (MBP pull-down with sequencing); 20 mM Tris-HCl pH 7.5, 100 mM NaCl, 1.5 mM MgCl2, 0.4 uM protein, 0.1 uM dsDNA library, 30 min, room temperature, amylose pull-down; high values mean tight binding
# Conditions: protein: recombinant; tags: His6-MBP; chain copies: 2; dsDNA, one strand shown
# Summary of the method: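 A fragment of mouse FoxP3 or FoxP1 without its N-terminus, carrying a His6-MBP tag and produced in E. coli, was combined at 0.4 µM with a 0.1 µM degenerate double-stranded DNA library filled in with Klenow. The mixture sat for 30 min at room temperature in Tris pH 7.5 buffer containing NaCl and MgCl2. Protein–DNA complexes were captured on amylose resin, washed three times, and the DNA was freed with proteinase K, barcoded by PCR and sequenced on Illumina. Binding is expressed as reads-per-million enrichment of pull-down over input, with replicates pooled.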
row,Sequence,binding signal
1,GATGATTGTTCTCCCAGCTGATGAATTTGTGCGATCGAGTAAACAAATTTTCCTAATCTTTCTGTTCAAGCGCCATCTAC,1.08 RPM ratio (pull-down/input)
2,GATGATTGTTCTCCCAGCTGATGAATTGAACCAATCGAGTAAACAAATTTTCCTAATCTTTCTGTTCAAGCGCCATCTAC,1.02 RPM ratio (pull-down/input)
3,GATGATTGTTCTCCCAGCTGATGAATTGGCCAAGTCGAGTAAACAAATTTTCCTAATCTTTCTGTTCAAGCGCCATCTAC,0.813 RPM ratio (pull-down/input)
4,GATGATTGTTCTCCCAGCTGATGAATTCGATTAGTCGAGTAAACAAATTTTCCTAATCTTTCTGTTCAAGCGCCATCTAC,0.829 RPM ratio (pull-down/input)
5,GATGATTGTTCTCCCAGCTGATGAATTCTTACGCTCGAGTAAACAAATTTTCCTAATCTTTCTGTTCAAGCGCCATCTAC,0.936 RPM ratio (pull-down/input)
6,GATGATTGTTCTCCCAGCTGATGAATTGGGCTTCTCGAGTAAACAAATTTTCCTAATCTTTCTGTTCAAGCGCCATCTAC,0.82 RPM ratio (pull-down/input)
7,GATGATTGTTCTCCCAGCTGATGAATTGTCCCTGTCGAGTAAACAAATTTTCCTAATCTTTCTGTTCAAGCGCCATCTAC,1.01 RPM ratio (pull-down/input)
8,GATGATTGTTCTCCCAGCTGATGAATTTGAATCGTCGAGTAAACAAATTTTCCTAATCTTTCTGTTCAAGCGCCATCTAC,0.833 RPM ratio (pull-down/input)
9,GATGATTGTTCTCCCAGCTGATGAATTGTTGGGATCGAGTAAACAAATTTTCCTAATCTTTCTGTTCAAGCGCCATCTAC,1.28 RPM ratio (pull-down/input)
10,GATGATTGTTCTCCCAGCTGATGAATTGATTTGCTCGAGTAAACAAATTTTCCTAATCTTTCTGTTCAAGCGCCATCTAC,1.02 RPM ratio (pull-down/input)
11,GATGATTGTTCTCCCAGCTGATGAATTAGGTTCTTCGAGTAAACAAATTTTCCTAATCTTTCTGTTCAAGCGCCATCTAC,0.915 RPM ratio (pull-down/input)
12,GATGATTGTTCTCCCAGCTGATGAATTAAACCTCTCGAGTAAACAAATTTTCCTAATCTTTCTGTTCAAGCGCCATCTAC,0.822 RPM ratio (pull-down/input)
13,GATGATTGTTCTCCCAGCTGATGAATTTCTTGTATCGAGTAAACAAATTTTCCTAATCTTTCTGTTCAAGCGCCATCTAC,1.06 RPM ratio (pull-down/input)
14,GATGATTGTTCTCCCAGCTGATGAATTATTTAAATCGAGTAAACAAATTTTCCTAATCTTTCTGTTCAAGCGCCATCTAC,1.24 RPM ratio (pull-down/input)
15,GATGATTGTTCTCCCAGCTGATGAATTAATCGTTTCGAGTAAACAAATTTTCCTAATCTTTCTGTTCAAGCGCCATCTAC,1.02 RPM ratio (pull-down/input)
16,GATGATTGTTCTCCCAGCTGATGAATTAGTAATCTCGAGTAAACAAATTTTCCTAATCTTTCTGTTCAAGCGCCATCTAC,1.04 RPM ratio (pull-down/input)
17,GATGATTGTTCTCCCAGCTGATGAATTTAGTGAGTCGAGTAAACAAATTTTCCTAATCTTTCTGTTCAAGCGCCATCTAC,0.888 RPM ratio (pull-down/input)
18,GATGATTGTTCTCCCAGCTGATGAATTTCCTTCTTCGAGTAAACAAATTTTCCTAATCTTTCTGTTCAAGCGCCATCTAC,0.842 RPM ratio (pull-down/input)
19,GATGATTGTTCTCCCAGCTGATGAATTCAACTTTTCGAGTAAACAAATTTTCCTAATCTTTCTGTTCAAGCGCCATCTAC,0.904 RPM ratio (pull-down/input)
20,GATGATTGTTCTCCCAGCTGATGAATTGCCCTTATCGAGTAAACAAATTTTCCTAATCTTTCTGTTCAAGCGCCATCTAC,1.02 RPM ratio (pull-down/input)
21,GATGATTGTTCTCCCAGCTGATGAATTTTACATATCGAGTAAACAAATTTTCCTAATCTTTCTGTTCAAGCGCCATCTAC,0.97 RPM ratio (pull-down/input)

row,Sequence,binding signal
1,GATGATTGTTCTCCCAGCTGATGAATTATTGATTTCGAGTAAACAAATTTTCCTAATCTTTCTGTTCAAGCGCCATCTAC,1.72 RPM ratio (pull-down/input)
2,GATGATTGTTCTCCCAGCTGATGAATTCGCATTCTCGAGTAAACAAATTTTCCTAATCTTTCTGTTCAAGCGCCATCTAC,1.18 RPM ratio (pull-down/input)
3,GATGATTGTTCTCCCAGCTGATGAATTAACAACTTCGAGTAAACAAATTTTCCTAATCTTTCTGTTCAAGCGCCATCTAC,1.27 RPM ratio (pull-down/input)
4,GATGATTGTTCTCCCAGCTGATGAATTTTGTATCTCGAGTAAACAAATTTTCCTAATCTTTCTGTTCAAGCGCCATCTAC,1.39 RPM ratio (pull-down/input)
5,GATGATTGTTCTCCCAGCTGATGAATTTTCGCGATCGAGTAAACAAATTTTCCTAATCTTTCTGTTCAAGCGCCATCTAC,0.884 RPM ratio (pull-down/input)
6,GATGATTGTTCTCCCAGCTGATGAATTGCGGTTGTCGAGTAAACAAATTTTCCTAATCTTTCTGTTCAAGCGCCATCTAC,1.24 RPM ratio (pull-down/input)
7,GATGATTGTTCTCCCAGCTGATGAATTCGCCAACTCGAGTAAACAAATTTTCCTAATCTTTCTGTTCAAGCGCCATCTAC,0.852 RPM ratio (pull-down/input)
8,GATGATTGTTCTCCCAGCTGATGAATTACTACCATCGAGTAAACAAATTTTCCTAATCTTTCTGTTCAAGCGCCATCTAC,1.13 RPM ratio (pull-down/input)
9,GATGATTGTTCTCCCAGCTGATGAATTCTGTGACTCGAGTAAACAAATTTTCCTAATCTTTCTGTTCAAGCGCCATCTAC,0.875 RPM ratio (pull-down/input)
10,GATGATTGTTCTCCCAGCTGATGAATTTAACACGTCGAGTAAACAAATTTTCCTAATCTTTCTGTTCAAGCGCCATCTAC,0.996 RPM ratio (pull-down/input)
11,GATGATTGTTCTCCCAGCTGATGAATTCCTTCCCTCGAGTAAACAAATTTTCCTAATCTTTCTGTTCAAGCGCCATCTAC,0.768 RPM ratio (pull-down/input)
12,GATGATTGTTCTCCCAGCTGATGAATTGGGAACCTCGAGTAAACAAATTTTCCTAATCTTTCTGTTCAAGCGCCATCTAC,0.808 RPM ratio (pull-down/input)
13,GATGATTGTTCTCCCAGCTGATGAATTTAAGACGTCGAGTAAACAAATTTTCCTAATCTTTCTGTTCAAGCGCCATCTAC,0.87 RPM ratio (pull-down/input)
14,GATGATTGTTCTCCCAGCTGATGAATTATGAGTCTCGAGTAAACAAATTTTCCTAATCTTTCTGTTCAAGCGCCATCTAC,0.886 RPM ratio (pull-down/input)
15,GATGATTGTTCTCCCAGCTGATGAATTAGACACCTCGAGTAAACAAATTTTCCTAATCTTTCTGTTCAAGCGCCATCTAC,0.886 RPM ratio (pull-down/input)
16,GATGATTGTTCTCCCAGCTGATGAATTATGACCCTCGAGTAAACAAATTTTCCTAATCTTTCTGTTCAAGCGCCATCTAC,0.943 RPM ratio (pull-down/input)
17,GATGATTGTTCTCCCAGCTGATGAATTGCGGCCTTCGAGTAAACAAATTTTCCTAATCTTTCTGTTCAAGCGCCATCTAC,0.991 RPM ratio (pull-down/input)
18,GATGATTGTTCTCCCAGCTGATGAATTGCTGCCTTCGAGTAAACAAATTTTCCTAATCTTTCTGTTCAAGCGCCATCTAC,1.06 RPM ratio (pull-down/input)
19,GATGATTGTTCTCCCAGCTGATGAATTAGGGTACTCGAGTAAACAAATTTTCCTAATCTTTCTGTTCAAGCGCCATCTAC,0.884 RPM ratio (pull-down/input)
20,GATGATTGTTCTCCCAGCTGATGAATTAACGTTGTCGAGTAAACAAATTTTCCTAATCTTTCTGTTCAAGCGCCATCTAC,1.07 RPM ratio (pull-down/input)
21,GATGATTGTTCTCCCAGCTGATGAATTCCGGATATCGAGTAAACAAATTTTCCTAATCTTTCTGTTCAAGCGCCATCTAC,0.794 RPM ratio (pull-down/input)

row,Sequence,binding signal
1,GATGATTGTTCTCCCAGCTGATGAATTTGTTCGCTCGAGTAAACAAATTTTCCTAATCTTTCTGTTCAAGCGCCATCTAC,1.07 RPM ratio (pull-down/input)
2,GATGATTGTTCTCCCAGCTGATGAATTTCATTCGTCGAGTAAACAAATTTTCCTAATCTTTCTGTTCAAGCGCCATCTAC,0.801 RPM ratio (pull-down/input)
3,GATGATTGTTCTCCCAGCTGATGAATTGGGACGATCGAGTAAACAAATTTTCCTAATCTTTCTGTTCAAGCGCCATCTAC,0.912 RPM ratio (pull-down/input)
4,GATGATTGTTCTCCCAGCTGATGAATTGGCTAGATCGAGTAAACAAATTTTCCTAATCTTTCTGTTCAAGCGCCATCTAC,0.877 RPM ratio (pull-down/input)
5,GATGATTGTTCTCCCAGCTGATGAATTACAAGATTCGAGTAAACAAATTTTCCTAATCTTTCTGTTCAAGCGCCATCTAC,1.28 RPM ratio (pull-down/input)
6,GATGATTGTTCTCCCAGCTGATGAATTTTTAGATTCGAGTAAACAAATTTTCCTAATCTTTCTGTTCAAGCGCCATCTAC,0.869 RPM ratio (pull-down/input)
7,GATGATTGTTCTCCCAGCTGATGAATTTCACTCCTCGAGTAAACAAATTTTCCTAATCTTTCTGTTCAAGCGCCATCTAC,0.84 RPM ratio (pull-down/input)
8,GATGATTGTTCTCCCAGCTGATGAATTAAGGCATTCGAGTAAACAAATTTTCCTAATCTTTCTGTTCAAGCGCCATCTAC,1.13 RPM ratio (pull-down/input)
9,GATGATTGTTCTCCCAGCTGATGAATTCCGAAACTCGAGTAAACAAATTTTCCTAATCTTTCTGTTCAAGCGCCATCTAC,0.829 RPM ratio (pull-down/input)
10,GATGATTGTTCTCCCAGCTGATGAATTATCGGAATCGAGTAAACAAATTTTCCTAATCTTTCTGTTCAAGCGCCATCTAC,1.11 RPM ratio (pull-down/input)
11,GATGATTGTTCTCCCAGCTGATGAATTACACGATTCGAGTAAACAAATTTTCCTAATCTTTCTGTTCAAGCGCCATCTAC,1.08 RPM ratio (pull-down/input)
12,GATGATTGTTCTCCCAGCTGATGAATTCTCGCAATCGAGTAAACAAATTTTCCTAATCTTTCTGTTCAAGCGCCATCTAC,1.14 RPM ratio (pull-down/input)
13,GATGATTGTTCTCCCAGCTGATGAATTCCAATCTTCGAGTAAACAAATTTTCCTAATCTTTCTGTTCAAGCGCCATCTAC,0.906 RPM ratio (pull-down/input)
14,GATGATTGTTCTCCCAGCTGATGAATTTCACGACTCGAGTAAACAAATTTTCCTAATCTTTCTGTTCAAGCGCCATCTAC,0.797 RPM ratio (pull-down/input)
15,GATGATTGTTCTCCCAGCTGATGAATTACTCTATTCGAGTAAACAAATTTTCCTAATCTTTCTGTTCAAGCGCCATCTAC,1.15 RPM ratio (pull-down/input)
16,GATGATTGTTCTCCCAGCTGATGAATTGCTGTCATCGAGTAAACAAATTTTCCTAATCTTTCTGTTCAAGCGCCATCTAC,1.33 RPM ratio (pull-down/input)
17,GATGATTGTTCTCCCAGCTGATGAATTCCCTTTTTCGAGTAAACAAATTTTCCTAATCTTTCTGTTCAAGCGCCATCTAC,0.858 RPM ratio (pull-down/input)
18,GATGATTGTTCTCCCAGCTGATGAATTTCCTTATTCGAGTAAACAAATTTTCCTAATCTTTCTGTTCAAGCGCCATCTAC,0.891 RPM ratio (pull-down/input)
19,GATGATTGTTCTCCCAGCTGATGAATTCTTAACATCGAGTAAACAAATTTTCCTAATCTTTCTGTTCAAGCGCCATCTAC,1.05 RPM ratio (pull-down/input)
20,GATGATTGTTCTCCCAGCTGATGAATTAGGGCTCTCGAGTAAACAAATTTTCCTAATCTTTCTGTTCAAGCGCCATCTAC,0.794 RPM ratio (pull-down/input)
21,GATGATTGTTCTCCCAGCTGATGAATTTTTGTAATCGAGTAAACAAATTTTCCTAATCTTTCTGTTCAAGCGCCATCTAC,1.78 RPM ratio (pull-down/input)
